Laboratory results taken from publication PMC4336329 (PLoS ONE, 2015).
Out of some 310,000 compounds screened, about 14,000 (4.5%) showed an effect of 50% or more. Effects have a minus sign here. The list shows a part of the results.

What follows are compounds tested against human ether-à-go-go-related gene (hERG) potassium channel (human, UniProt Q12809) (assay: primary screen, population patch clamp on CHO cells stably expressing hERG).
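Note: peak tail current of the secondary pulse compared with the same well before compound.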

human ether-à-go-go-related gene (hERG) potassium channel, sequence (Q12809 whole entry, looked up): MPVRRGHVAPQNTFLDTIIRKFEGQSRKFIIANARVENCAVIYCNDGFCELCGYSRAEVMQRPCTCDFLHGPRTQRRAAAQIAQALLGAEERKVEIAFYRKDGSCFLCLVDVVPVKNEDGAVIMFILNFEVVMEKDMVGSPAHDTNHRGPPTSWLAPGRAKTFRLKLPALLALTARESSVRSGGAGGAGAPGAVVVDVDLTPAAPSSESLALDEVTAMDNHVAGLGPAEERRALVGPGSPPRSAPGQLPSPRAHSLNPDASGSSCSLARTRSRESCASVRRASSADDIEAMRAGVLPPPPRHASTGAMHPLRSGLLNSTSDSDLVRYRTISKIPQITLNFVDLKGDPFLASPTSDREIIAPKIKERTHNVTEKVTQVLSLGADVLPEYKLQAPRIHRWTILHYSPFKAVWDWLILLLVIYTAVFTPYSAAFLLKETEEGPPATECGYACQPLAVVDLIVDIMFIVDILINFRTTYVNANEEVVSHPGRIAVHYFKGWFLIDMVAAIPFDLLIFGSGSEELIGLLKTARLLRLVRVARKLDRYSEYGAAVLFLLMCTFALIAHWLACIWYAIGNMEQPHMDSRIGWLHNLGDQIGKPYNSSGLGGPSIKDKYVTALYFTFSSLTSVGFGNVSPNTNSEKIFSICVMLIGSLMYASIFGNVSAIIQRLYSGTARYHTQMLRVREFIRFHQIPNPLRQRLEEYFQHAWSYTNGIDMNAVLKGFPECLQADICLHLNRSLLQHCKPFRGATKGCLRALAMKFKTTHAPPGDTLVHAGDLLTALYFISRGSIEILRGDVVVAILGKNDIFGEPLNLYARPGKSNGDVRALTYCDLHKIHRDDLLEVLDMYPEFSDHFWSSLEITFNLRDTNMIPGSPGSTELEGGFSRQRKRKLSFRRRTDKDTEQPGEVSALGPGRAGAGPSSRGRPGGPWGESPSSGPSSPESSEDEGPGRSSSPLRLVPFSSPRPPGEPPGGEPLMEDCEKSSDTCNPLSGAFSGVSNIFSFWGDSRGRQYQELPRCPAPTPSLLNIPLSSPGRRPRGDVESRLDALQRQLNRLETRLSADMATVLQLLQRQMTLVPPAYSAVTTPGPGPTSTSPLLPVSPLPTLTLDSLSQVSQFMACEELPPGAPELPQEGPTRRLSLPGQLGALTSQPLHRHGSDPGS

Compared with `Cc1ccc(-c2nnn(CCC(=O)NC(C)(C)C)n2)cc1`, `CCOC(=O)Cc1csc(NC(=O)CSc2nnnn2-c2ccc(C)c(C)c2)n1` is higher in “hERG current change (%, negative = inhibition) at 10uM” value: 12.2% for the first, 13.2% for the second.

Compared with `Cc1ccc(C(=O)NCc2ccc3c(c2)OCO3)cc1Cl`, `O=C(CSc1ncc(-c2ccc(F)cc2)n1Cc1ccco1)Nc1ccc2c(c1)OCO2` is lower in “hERG current change (%, negative = inhibition) at 10uM” value: 17.9% for the first, 10.2% for the second.

Going from `O=C(N/C(=C\c1cccs1)C(=O)N1CCCCCC1)c1ccccc1` to `O=C(Nc1ccccc1)N1CCC(c2ccccc2)C1` (stereo not drawn), the “hERG current change (%, negative = inhibition) at 10uM” value rises from -32.3% to -4.49%.

Compared with `CCN1C(=O)N(c2ccc(Cl)cc2)C(C)=CC1(C)C`, `Cc1ccc(C)c(N=Nc2nc3ccccc3n2C)c1` is lower in “hERG current change (%, negative = inhibition) at 10uM” value: 6.6% for the first, -26.6% for the second.

Going from `CCCC(=O)N1CCN(c2ccc(NC(=O)c3ccc(N4CCCC4)c([N+](=O)[O-])c3)cc2Cl)CC1` to `Cc1cc(C)cc(OCC(=O)Nc2ccc(N3CCN(C(=O)c4ccco4)CC3)cc2)c1`, the “hERG current change (%, negative = inhibition) at 10uM” value falls from -30.4% to -45.8%.

Compared with `COCCCNC(=O)/C(C#N)=C/c1cc(C)[nH]c1C`, `CCCCN(CC)CCCNC(=O)c1cc2c(-c3ccc(OC)c(OC)c3)nn(C)c2s1` is lower in “hERG current change (%, negative = inhibition) at 10uM” value: -5.07% for the first, -7.25% for the second.

Compared with `O=C(NNC(=O)c1ncc(Cl)c(Cl)c1Cl)c1ccc(F)cc1`, `CC(=O)Nc1ccc(S(=O)(=O)NNC(=O)c2cccc(Cl)c2)cc1` is lower in “hERG current change (%, negative = inhibition) at 10uM” value: 14.5% for the first, 8.3% for the second.

Going from `Fc1cc2[nH]c(=S)[nH]c2c(Br)c1N1CCSCC1` to `Cc1ccc(C)c2[nH]c(=O)c(CN(CCN3CCCC3)C(=O)Nc3ccc(F)cc3)cc12`, the “hERG current change (%, negative = inhibition) at 10uM” value falls from 17.6% to -75.7%.

Compared with `COc1ccc(C2CC(c3cccs3)=NN2C(=O)CSC2=NCCS2)cc1` (stereo not drawn), `COc1ccc(-n2ccnc(SCC(=O)NC3CCCCC3)c2=O)cc1` is higher in “hERG current change (%, negative = inhibition) at 10uM” value: -11% for the first, 17.1% for the second.

Going from `CCOc1ccccc1OCCCC(=O)Nc1nc2ccccc2[nH]1` to `CCOc1ccccc1CNS(=O)(=O)c1ccc2c(c1)oc(=O)n2C`, the “hERG current change (%, negative = inhibition) at 10uM” value falls from 5.1% to -4.89%.

Going from `CCOC(=O)C1=C(N)OC2=C(C(=O)CC(C)(C)C2)C1C1CCCCC1` (stereo not drawn) to `CCOc1ccccc1C(=O)OCC(=O)NCC1CCCCC1`, the “hERG current change (%, negative = inhibition) at 10uM” value falls from -5.17% to -7.31%.

Going from `COc1ccc(NC(=S)NCCN2CCOCC2)cc1` to `CC(=O)N1CCC(N(CCN2CCOCC2)C(=O)Nc2ccc(Cl)c(Cl)c2)CC1`, the “hERG current change (%, negative = inhibition) at 10uM” value falls from 21.7% to -21.7%.

Going from `Cc1cc(N/N=C/c2ccc(O)cc2O)nc(-n2nc(C)cc2C)n1` to `Cc1cc(C)n(CC(=O)N/N=C/c2ccco2)n1`, the “hERG current change (%, negative = inhibition) at 10uM” value falls from 3.01% to -8.2%.

First: COc1ccc(/C=C2\SC(=O)N(CC(=O)NC3C=CS(=O)(=O)C3)C2=O)cc1 (stereo not drawn)
Second: COc1cc(C=Nc2cccc([N+](=O)[O-])c2C)ccc1OC(C)=O
The “hERG current change (%, negative = inhibition) at 10uM” value of the first is higher: 15.9% for the first, 12.9% for the second.

Compared with `CCN(CC(F)(F)C(F)F)S(=O)(=O)c1ccc(NC(=O)OC)cc1`, `COC(=O)C(NC(=O)c1ccccc1C)(Nc1ncc(S(=O)(=O)c2ccc([N+](=O)[O-])cc2)s1)C(F)(F)F` (stereo not drawn) is lower in “hERG current change (%, negative = inhibition) at 10uM” value: -5.93% for the first, -33% for the second.

Compared with `C=CCOc1nc2c(c(=O)n(Cc3ccc(Cl)c(Cl)c3)c(=O)n2C)n1C`, `Cc1sc2nc(SCCN(C)C)n(-c3ccccc3)c(=O)c2c1-c1ccc(F)cc1` is lower in “hERG current change (%, negative = inhibition) at 10uM” value: 16.6% for the first, 0.83% for the second.

Compared with `Cn1cnc(S(=O)(=O)N2CCN(c3ccccc3)CC2)c1`, `CCN1CCN(CCCNC(=O)c2cc3c(=O)[nH]c4ccccc4c3s2)CC1` is lower in “hERG current change (%, negative = inhibition) at 10uM” value: 17.3% for the first, -1.25% for the second.

Compared with `COc1ccccc1O`, `CCCOc1ccc(C2(C(=O)O)CCCC2)cc1` is lower in “hERG current change (%, negative = inhibition) at 10uM” value: 15.4% for the first, 6.16% for the second.

First: O=C(NCCc1ccccn1)c1cncc(Br)c1
Second: COC(CNc1ncnc2sc(-c3ccccc3)cc12)OC
The “hERG current change (%, negative = inhibition) at 10uM” value of the first is higher: 11.7% for the first, -24.1% for the second.

Compared with `CCN(C(=O)C1CCCCC1)c1nnc(-c2cccnc2)s1.Cl`, `COc1ccc(NC(=O)C2CCCN(S(C)(=O)=O)C2)cc1Cl` (stereo not drawn) is higher in “hERG current change (%, negative = inhibition) at 10uM” value: -8.54% for the first, 10.2% for the second.

Compared with `C[N+]1(C)CCC(OC(=O)C(c2ccccc2)c2ccccc2)CC1.[I-]`, `COc1ccc(N(CC(=O)Nc2ccc(OC)c(OC)c2)S(=O)(=O)c2ccccc2)cc1Cl` is higher in “hERG current change (%, negative = inhibition) at 10uM” value: 1.2% for the first, 10.2% for the second.

Compared with `CCS(=O)(=O)NCc1ccc2[nH]c3c(c2c1)CCCC3`, `CCCc1nc(NC(C)=O)c(C#N)c(-c2ccco2)c1CC` is lower in “hERG current change (%, negative = inhibition) at 10uM” value: 14.8% for the first, -8.93% for the second.

`O=C1CSC(c2ccc(F)cc2)N1c1c(F)cccc1F` (stereo not drawn) was tested, and the “hERG current change (%, negative = inhibition) at 10uM” value was 4.06%.
